In PubChem BioAssay (NCATS):
Inconclusive means that the source gave no clear call. Such entries were picked first, then a sample of the others. For some of these results: Potencies beside an inconclusive call are fits to weak or partial responses and may not hold up. Activity calls are given as the source filed them. Unless noted, calls follow the shape of the dose curve; as a rule, active = well fitted curve in the direction sought with a large enough effect; inconclusive = small, poorly fitted or top-dose-only effect, or another doubt; inactive = no such curve, though single readings can be large; an effect the other way counts as inactive or inconclusive.

How the values were obtained:
[1] = qHTS for Inhibitors of the vitamin D receptor (VDR): Hit Validation using a Texas Red Assay (AID 602201); also: % is scaled to controls: 0 for no effect and ±100 for the full control effect
Outline: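 Fluorescence polarization (Ex 595/Em 615 nm) of Texas Red (7 nM) with 1.5 uM VDR-LBD and LG19078 (final concentrations). Compounds were incubated for 2 hours at room temperature.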

[2] = qHTS for Inhibitors of the vitamin D receptor (VDR): Hit Validation using a Cytotoxicity Assay (AID 602204);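 also: cells co-treated with VDR agonist LG190178 at 300 nM; potency is read from the fitted curve at half-maximal effect; nearly all actives have a fitted effect of over 75% in size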
Outline: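 First, 20,000 cells are dispensed per well. Next comes a 4 h incubation, then compound addition and an 18 h incubation. Finally, ATP-based luminescent reagent is added and plates are read after 30 min.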

[3] = molecular target: Rap guanine nucleotide exchange factor 3 (Homo sapiens) (UniProt O95398); experiment: Counterscreen qHTS for agonist of cAMP-regulated guanine nucleotide exchange factor 3 (EPAC1) (AID 1645889); conditions: EPAC1 Rap1B-BODIPY-GDP exchange, fluorescence; activation: at 154 µM (top of the series) unless noted; also: % of control where 0% means no effect; nearly all actives have a fitted effect of over 40% in size
Outline: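 Measured: fluorescence of BODIPY-GDP bound to Rap1B, which falls as exchange proceeds. Conditions include 50 uM competing GDP, 5 and 30 min reads, and a later cAMP challenge for antagonist detection.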

[4] = molecular target: DNA repair nuclease/redox regulator APEX1 (Homo sapiens) (UniProt P27695); experiment: qHTS Validation Assay for Inhibitors of the Human Apurinic/apyrimidinic Endonuclease 1 (APE1) (AID 1705; also: potency is read from the fitted curve at half-maximal effect)
Outline: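 Substrate: 50 nM final fluorophore/quencher THF-abasic duplex. Enzyme preincubated with compounds 15 min, RT. Progress derived from fluorescence difference, third minus first kinetic read.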

[5] = molecular target: Endonuclease 4 (Escherichia coli (strain K12)) (UniProt P0A6C1); experiment: Counterscreen for APE1 Inhibitors: qHTS Validation Assay for Inhibitors of Endonuclease IV (AID 1708); also: potency is read from the fitted curve at half-maximal effect
Outline: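 Measured as reaction progress, the fluorescence gain between first and third kinetic reads after adding 50 nM TAMRA/BHQ-2 THF duplex to 2 nM enzyme preincubated 15 min with compound; 2 mM MgCl2, pH 7.5.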

[6] = qHTS for differential inhibitors of proliferation of Plasmodium falciparum line GB4 (AID 1816); conditions: Potency: Plasmodium falciparum GB4 proliferation inhibition;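 also: parasite growth measured after 72 h incubation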; also: potency is read from the fitted curve at half-maximal effect;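 as to activity change, negative = inhibition: 0% = vehicle DMSO and -100% = reference inhibitor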
[7] = qHTS Assay for Modulators of Human Peripheral Myelin Protein 22 (PMP22) Expression/Activity (AID 1967; active = well fitted curve in the direction sought with a large enough effect in the signal ratio; inconclusive = small, poorly fitted or top-dose-only effect, or effect the other way, or a change in a side signal; inactive = no such curve, though single readings can be large or run the other way; the % refers to the signal ratio; also: potency is read from the fitted curve at half-maximal effect); conditions: Cell-based PMP22 reporter, dual-color luciferase ratio, mouse Pmp22 promoter in mouse Schwann cells; activity change (ratio): at 115 µM (top of the series), 0% = compound-free control cells
Outline: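 Engineered MSC80 cells, Pmp22-promoter green and EF-alpha red luciferase reporters; 24h compound treatment at 37 °C. Concentration-response fits on green, red and ratio signals, each overlap-corrected, with %Activity normalized to untreated wells.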

[8] = molecular target: RecQ-like DNA helicase BLM (Homo sapiens) (UniProt P54132); experiment: qHTS Validation Assay for Inhibitors of Bloom's syndrome helicase (BLM) (AID 2364); also: potency is read from the fitted curve at half-maximal effect;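 as to activity change, negative = inhibition: plate controls were DMSO vehicle for no effect and enzyme-free control for full effect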
Outline: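 BLM 50 nM in 25 mM Tris-HCl pH 8.0, 5 mM NaCl, 2 mM MgCl2, 1 mM DTT, 0.01% Tween-20, 2.5 ug/ml poly(dI-dC); 15 min cpd preinc, RT. Start: 200 nM forked DNA + 2 mM ATP (final). TAMRA read, 2 reads 2 h apart.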

[9] = molecular target: DNA repair nuclease/redox regulator APEX1 (Homo sapiens) (UniProt P27695); experiment: Confirmation qHTS Assay for Inhibitors of the Human Apurinic/apyrimidinic Endonuclease 1 (APE1) (AID 2572); also: potency is read from the fitted curve at half-maximal effect; nearly all actives have a fitted effect of over 30% in size
Outline: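 APE1 endonuclease activity was assessed as fluorescence released when the enzyme nicked a quenched abasic-site duplex (50 nM final). Compounds were preincubated with enzyme 15 min at room temperature before substrate addition.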

[10] = Cytometry Cell-Based qHTS for Inhibitors of the mTORC1 Signaling Pathway in MEF cells (AID 2668); conditions: mTORC1 pathway readout; at 38.3 µM (top of the series);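 also: Tsc2-/- p53-/- mouse embryonic fibroblasts stably re-expressing wild-type Tsc2; percent cells positive for phospho-rpS6 Ser235/236 relative to propidium iodide stain; plate controls were DMSO wells for no effect and 7.5 nM rapamycin control wells for full effect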
Outline: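 In MEFs grown in DMEM + 10% FBS, a 24 hrs compound exposure preceded imaging of phospho-rpS6 Ser235/236 by laser-scanning cytometry.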

[11] = molecular target: ATP-dependent 6-phosphofructokinase (Trypanosoma brucei brucei) (UniProt O15648); experiment: qHTS Validation Assay to Find Inhibitors of T. brucei phosphofructokinase (AID 485368)
Outline: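 ADP-Glo luminescence, two-step: residual ATP depleted, then ADP converted to ATP for luciferase. Enzyme 1.25 nM, F6P 0.5 mM, ATP 0.1 mM, pH 8.0 TEA buffer, 45 min RT. Curves fitted and classed by quality and efficacy.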

[12] = Quantitative high throughput screen for delayed death inhibitors of the malarial parasite plastid, 48 hour incubation (AID 488752); also: nearly all actives have a fitted effect of over 65% in size; also: potency is read from the fitted curve at half-maximal effect
Outline: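 Cultures: infected erythrocytes at final 2% hematocrit and 0.1% parasitemia in Albumax-supplemented RPMI. Parasites express integrated firefly luciferase. Incubation with compound lasts 48 h before luminescent detection of remaining reporter activity.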

[13] = molecular target: Chromobox protein homolog 1 (Homo sapiens) (UniProt P83916); experiment: qHTS Validation Assay for Inhibitors of HP1-beta Chromodomain Interactions with Methylated Histone Tails (AID 488953);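 also: loss of AlphaScreen luminescence from HP1-beta binding biotinylated H3K9me3 peptide; % is scaled to controls: 0 for no effect and ±100 for the full control effect; nearly all actives have a fitted effect of over 50% in size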
Outline: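 Compounds pinned into a preassembled complex of HP1-beta and trimethyl-K9 histone H3(1-18) biotin peptide (50 nM each; PBS pH 7.4, 0.01% Tween-20). After 30 min, bead-based AlphaScreen detection followed.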

[14] = Inducers of the Endoplasmic Reticulum Stress Response (ERSR) in human glioma: Validation (AID 504836); conditions: human glioma cells, ER stress response reporter; at 38.3 µM (top of the series); also: 0% is about no effect
Outline: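 Stably transfected U87-MG human glioma cells carrying a GRP78-based luminescent sensor were seeded at 1000 cells/well, pin-dosed with compounds and incubated 16 h. Luciferase reagent was then added, and end-point luminescence was read after 10 min at room temperature.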

[15] = qHTS for Inhibitors of ATXN expression: Validation of Cytotoxic Assay (AID 588349); also: % is scaled to controls: 0 for no effect and ±100 for the full control effect
Outline: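 Toxicity of test compounds toward HEK293 cells is scored from cellular ATP content measured by CellTiter Glo. Cells receive titrated doses and incubate 72 hr at 37 degrees C beforehand.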

[16] = molecular target: Voltage-gated inwardly rectifying potassium channel KCNH2 (Homo sapiens) (UniProt Q12809); experiment: qHTS Assay for Small Molecule Inhibitors of the Human hERG Channel Activity (AID 588834);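 also: top concentration of the series differs between compounds; % is scaled to controls: 0 for no effect and ±100 for the full control effect; lower thallium flux fluorescence means stronger hERG block; nearly all actives have a fitted effect of over 50% in size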
Outline: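 Homogeneous FluxOR thallium flux assay using hERG-expressing U2OS cells (BacMam). Compound treatment about 10 minutes preceded stimulation; reduced fluorescence taken as channel block.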

[17] = qHTS Assay for Identifying Gametocytocidal Compounds (AID 743244);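 also: % is scaled to controls: 0 for no effect and ±100 for the full control effect; actives lower the fluorescent signal which means gametocytes are killed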; conditions: P. falciparum 3D7 stage III-V gametocytes, alamarBlue, 72 h; max response: stronger effect = lower value
Outline: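 In this qHTS viability screen, late-stage 3D7 gametocytes are incubated with compound for 72 h, then with alamarBlue for 24 h; reduced resorufin fluorescence marks killing.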

[18] = qHTS for differential inhibitors of proliferation of Plasmodium falciparum line 7G8 (AID 1815);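 also: parasite growth measured after three days of incubation; plate controls were vehicle wells for no effect and reference inhibitor wells for full effect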
[19] = Validation screen for small molecules that induce DNA re-replication in MCF 10A normal breast cells (AID 463097); also: potency is read from the fitted curve at half-maximal effect; nearly all actives have a fitted effect of over 60% in size
Outline: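 Following 48 hr compound incubation (37 C, 5% CO2), MCF 10A cells receive Hoechst for 40 min at 37 C. Nuclei are then scanned (excitation 405 nm, emission 500-530 nm) for total fluorescence intensity.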

[20] = AP1 Signaling Pathway (AID 357; active = well fitted curve in either direction with a large enough effect, not every such curve was filed as active; inconclusive = small, poorly fitted or top-dose-only effect, or another doubt;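 also: ME-180 reporter cells stimulated with EGF at its EC50 level; top concentration of the series differs between compounds; % is scaled to controls: 0 for no effect and ±100 for the full control effect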); conditions: ME-180 (cervical carcinoma) AP-1-bla reporter, EGF-induced, beta-lactamase ratio, 5 h; at 17.2 µM (top of the series) unless noted
Outline: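 Beta-lactamase reporter under AP-1 response element, ME-180 background. Stimulus: EC50 EGF. Compound exposure 5 h, 37 °C. Detection: CCF4, 2.5 h RT, 460/530 nm. Values: AC50 from titration.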

[21] = molecular target: Glucocorticoid receptor (Homo sapiens) (UniProt P04150); experiment: GR-GFP Redistribution (AID 450;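 active = compounds whose dose series gives a full or clear partial fitted curve of increased nuclear translocation; inconclusive = weak partial curve or effect only at the top dose; inactive = no dose-dependent translocation response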; also: potency is read from the fitted curve at half-maximal effect); conditions: U2OS GR-GFP nuclear translocation, laser cytometry, 2 h
[22] = molecular target: Mitogen-activated protein kinase 10 (Mus musculus) (UniProt Q61831); experiment: JNK3 AlphaScreen Assay (AID 530; active = well fitted curve in either direction with a large enough effect, not every such curve was filed as active; inconclusive = small, poorly fitted or top-dose-only effect, or another doubt;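 also: kinase came from lysate of stimulated human HepG2 cells; signal reports phosphorylation of biotinylated GST-cJun 1-79 at Ser73 with 10 µM ATP; % is scaled to controls: 0 for no effect and ±100 for the full control effect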); conditions: JNK3 lysate, c-Jun phosphorylation; activity change, negative = inhibition: at 57.1 µM (top of the series)
Outline: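 Biotinylated GST-cJun(1-79) served as substrate for JNK3 in HepG2 lysates stimulated with IL-1beta and TNF-alpha. ATP was 10 uM final, pH 7.6. Ser73 phosphorylation was quantified by AlphaScreen (680 nm excitation).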

[23] = qHTS Assay for Identification of Small Molecule Antagonists for NFkB Signaling Pathway (AID 895; active = well fitted inhibition curve with a large enough effect in the signal ratio, with a control signal flat, not every such curve was filed as active; inconclusive = small, poorly fitted or top-dose-only effect, or effect the other way, or a change in a side signal; the % refers to the signal ratio; also: % is scaled to controls: 0 for no effect and ±100 for the full control effect); conditions: NFkB beta-lactamase reporter cells, FRET ratio 460/530, stimulated with 10 pM TNF alpha; activity change, negative = inhibition: at 38.3 µM (top of the series)
Outline: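 NFkB-bla ME-180 cervical carcinoma cells with beta-lactamase reporter under NFkB response element; compounds added, then TNF alpha at 10 pM final (EC50), 5 h at 37 C. LiveBLAzer substrate 2 h, room temperature; emission 460/530 nm at 405 nm excitation.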

[24] = qHTS Assay for Identification of Small Molecule Agonists for Thrombopoietin (TPO) Signaling Pathway (AID 917); conditions: TPO signaling pathway reporter cells, agonist qHTS, stimulated with TPO at its EC50; activity, positive = activation: at 38.5 µM (top of the series); also: potency is read from the fitted curve at half-maximal effect
Outline: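 Human TPO receptor–transfected Ba/F3 cells (murine, IL-3-dependent) in IL-3-deficient medium; compounds plus TPO at EC50, 26 pM final; 24 hrs, 37 C; GpIIb-luciferase luminescence after 10 min RT detection.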

[25] = molecular target: Muscarinic acetylcholine receptor M1 (Rattus norvegicus) (UniProt P08482); experiment: qHTS Assay for Antagonists of Acetylcholine Muscarinic M1 Receptor: Kinetic Measurement of Intracellular Calcium Response (AID 943); also: potency is read from the fitted curve at half-maximal effect; nearly all actives have a fitted effect of over 75% in size
Outline: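 Quantitative HTS in CHO-M1 (rat receptor) cells: 10 min compound exposure ahead of 100 nM carbachol, Fluo-4 fluorescence followed 4 min, value expressed as peak-to-basal ratio.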

[26] = qHTS for differential inhibitors of proliferation of Plasmodium falciparum line Dd2 (AID 1882); conditions: Potency: Plasmodium falciparum Dd2 proliferation inhibition; also: potency is read from the fitted curve at half-maximal effect; nearly all actives have a fitted effect of over 65% in size
Outline: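 RBC culture, 0.3% parasitemia / 2.5% Hct final; cpd added by pin tool in DMSO; 72 h, 37 C, 5% CO2; lysis buffer + SYBR Green I, o/n RT dark; FI 485/535; norm. to artemisinin 0.29 uM and DMSO.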

[27] = molecular target: Ferritin light chain (Equus caballus) (UniProt P02791); experiment: qHTS Validation Assay for Identification of Novel General Anesthetics (AID 2323); also: potency is read from the fitted curve at half-maximal effect
Outline: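 Normalized fluorescence response, scaled between free 1-AMA and 1-AMA/apoferritin complex, fitted to a four-parameter Hill equation for concentration-effect values. Binding mix: 10 uM horse-spleen apoferritin, 50% saturated 1-AMA in PBS; read 380/535 nm after 10 min.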

[28] = Quantitative high throughput screen for delayed death inhibitors of the malarial parasite plastid, 96 hour incubation (AID 488745); also: potency is read from the fitted curve at half-maximal effect; nearly all actives have a fitted effect of over 70% in size
Outline: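 Two-generation (96 h) exposure of luciferase-reporter P. falciparum in erythrocytes, 2% hematocrit, 0.1% parasitemia final, 37 C, 5% CO2, RPMI 1640 with 0.5% Albumax. Growth inhibition scored by reduced luminescence.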

[29] = molecular target: Transient receptor potential cation channel subfamily V member 1 (Homo sapiens) (UniProt Q8NER1); experiment: HTS Assay for Compounds that Act as Enhancers of the Vanilloid Receptor 1 (AID 488979); also: potency is read from the fitted curve at half-maximal effect
Outline: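 TRPV1-expressing cells loaded with Fluo-8 calcium dye; compounds added and calcium influx read kinetically for 3 min (agonist phase), then capsaicin at EC20 added and read 2 min more for enhancement. Fluorescence ex 480/em 520 nm.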

[30] = Validation screen for small molecules that induce DNA re-replication in SW480 colon adenocarcinoma cells (AID 504364); also: potency is read from the fitted curve at half-maximal effect
Outline: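 Hoechst-stained SW480 nuclei, imaged at 405 nm excitation after 48 hr compound exposure, were counted for elevated DNA content as the re-replication signal.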
Tags tell the direction and shape of the fitted curve.

Sequence of UniProt P54132 (P54132 whole entry, looked up): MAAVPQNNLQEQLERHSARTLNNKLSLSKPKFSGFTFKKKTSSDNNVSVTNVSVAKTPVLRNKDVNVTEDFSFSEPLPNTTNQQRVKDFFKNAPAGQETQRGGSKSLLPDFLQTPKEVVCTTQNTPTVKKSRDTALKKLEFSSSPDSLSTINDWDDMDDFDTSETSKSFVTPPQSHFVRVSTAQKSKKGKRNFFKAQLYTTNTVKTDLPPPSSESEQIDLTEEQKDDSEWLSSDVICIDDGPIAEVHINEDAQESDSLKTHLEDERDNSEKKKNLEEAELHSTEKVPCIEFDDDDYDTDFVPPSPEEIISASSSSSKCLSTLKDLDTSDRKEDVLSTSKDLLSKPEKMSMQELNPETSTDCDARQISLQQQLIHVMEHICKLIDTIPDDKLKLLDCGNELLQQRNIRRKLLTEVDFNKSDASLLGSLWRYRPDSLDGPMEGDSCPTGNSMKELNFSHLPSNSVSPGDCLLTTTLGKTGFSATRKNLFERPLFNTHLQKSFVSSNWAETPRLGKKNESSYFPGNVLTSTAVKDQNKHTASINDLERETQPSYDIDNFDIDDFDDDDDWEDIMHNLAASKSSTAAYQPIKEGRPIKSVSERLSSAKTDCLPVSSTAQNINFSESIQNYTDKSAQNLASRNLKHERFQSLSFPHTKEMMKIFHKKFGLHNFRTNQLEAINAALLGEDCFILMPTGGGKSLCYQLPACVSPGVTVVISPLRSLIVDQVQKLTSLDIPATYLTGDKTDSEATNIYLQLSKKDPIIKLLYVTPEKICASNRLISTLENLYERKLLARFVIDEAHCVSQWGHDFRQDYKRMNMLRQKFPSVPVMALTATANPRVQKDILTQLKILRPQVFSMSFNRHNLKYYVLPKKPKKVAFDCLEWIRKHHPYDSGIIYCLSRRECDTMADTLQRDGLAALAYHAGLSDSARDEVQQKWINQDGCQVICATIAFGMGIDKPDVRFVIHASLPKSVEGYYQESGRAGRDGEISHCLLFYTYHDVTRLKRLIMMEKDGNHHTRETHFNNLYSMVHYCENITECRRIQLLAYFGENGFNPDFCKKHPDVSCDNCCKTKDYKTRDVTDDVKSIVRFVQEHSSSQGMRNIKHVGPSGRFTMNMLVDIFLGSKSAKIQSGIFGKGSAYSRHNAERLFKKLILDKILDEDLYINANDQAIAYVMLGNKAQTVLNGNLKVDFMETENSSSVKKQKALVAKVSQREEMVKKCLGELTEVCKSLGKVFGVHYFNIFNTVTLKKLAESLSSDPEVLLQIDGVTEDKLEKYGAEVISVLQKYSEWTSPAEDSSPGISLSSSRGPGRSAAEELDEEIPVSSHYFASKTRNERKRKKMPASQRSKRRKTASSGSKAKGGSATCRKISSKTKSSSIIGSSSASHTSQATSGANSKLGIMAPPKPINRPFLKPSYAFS
Sequence of UniProt P27695 (P27695 whole entry, looked up): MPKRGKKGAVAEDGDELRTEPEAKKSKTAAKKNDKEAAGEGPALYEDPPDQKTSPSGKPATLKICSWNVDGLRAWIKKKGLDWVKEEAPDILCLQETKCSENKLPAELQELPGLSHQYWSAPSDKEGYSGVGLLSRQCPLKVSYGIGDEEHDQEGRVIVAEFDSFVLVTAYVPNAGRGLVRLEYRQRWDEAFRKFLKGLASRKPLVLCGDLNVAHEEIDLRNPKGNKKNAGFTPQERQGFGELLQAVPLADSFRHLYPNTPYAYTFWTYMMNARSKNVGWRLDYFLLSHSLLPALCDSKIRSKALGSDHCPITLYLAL
Sequence of UniProt P08482 (P08482 whole entry, looked up): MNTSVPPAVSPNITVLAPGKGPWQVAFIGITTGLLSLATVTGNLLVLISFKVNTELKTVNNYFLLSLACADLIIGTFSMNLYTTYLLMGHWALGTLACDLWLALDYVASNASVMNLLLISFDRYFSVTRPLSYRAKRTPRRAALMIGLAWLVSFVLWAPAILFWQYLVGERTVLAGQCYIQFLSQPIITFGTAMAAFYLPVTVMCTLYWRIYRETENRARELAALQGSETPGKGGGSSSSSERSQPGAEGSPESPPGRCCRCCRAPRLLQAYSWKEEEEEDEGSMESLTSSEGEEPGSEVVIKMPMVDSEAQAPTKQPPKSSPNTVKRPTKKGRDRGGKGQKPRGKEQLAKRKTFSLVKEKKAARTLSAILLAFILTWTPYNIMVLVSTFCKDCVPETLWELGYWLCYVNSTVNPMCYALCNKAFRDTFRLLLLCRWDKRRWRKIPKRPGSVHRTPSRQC
Sequence of UniProt Q8NER1 (Q8NER1 whole entry, looked up): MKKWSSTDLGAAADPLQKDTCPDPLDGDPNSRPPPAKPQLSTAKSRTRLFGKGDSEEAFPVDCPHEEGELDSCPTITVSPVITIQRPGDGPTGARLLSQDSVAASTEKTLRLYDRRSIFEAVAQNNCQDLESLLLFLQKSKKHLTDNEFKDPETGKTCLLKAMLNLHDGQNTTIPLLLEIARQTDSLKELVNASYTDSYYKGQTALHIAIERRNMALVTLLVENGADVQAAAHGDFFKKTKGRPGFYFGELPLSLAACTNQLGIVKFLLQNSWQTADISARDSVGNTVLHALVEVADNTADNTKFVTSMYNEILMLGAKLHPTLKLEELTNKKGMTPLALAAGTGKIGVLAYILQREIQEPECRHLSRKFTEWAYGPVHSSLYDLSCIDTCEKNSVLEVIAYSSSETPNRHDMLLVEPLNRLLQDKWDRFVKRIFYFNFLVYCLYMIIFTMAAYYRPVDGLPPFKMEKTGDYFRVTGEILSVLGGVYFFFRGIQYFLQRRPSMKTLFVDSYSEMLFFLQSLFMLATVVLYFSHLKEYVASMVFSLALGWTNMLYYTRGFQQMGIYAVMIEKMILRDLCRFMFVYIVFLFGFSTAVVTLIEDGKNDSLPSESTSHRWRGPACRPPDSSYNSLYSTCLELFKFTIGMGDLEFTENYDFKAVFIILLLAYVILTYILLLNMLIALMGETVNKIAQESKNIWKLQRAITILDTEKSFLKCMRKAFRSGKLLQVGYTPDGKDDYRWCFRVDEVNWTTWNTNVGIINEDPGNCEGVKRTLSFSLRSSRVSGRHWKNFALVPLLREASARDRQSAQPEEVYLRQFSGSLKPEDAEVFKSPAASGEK
Sequence of UniProt Q12809 (Q12809 whole entry, looked up): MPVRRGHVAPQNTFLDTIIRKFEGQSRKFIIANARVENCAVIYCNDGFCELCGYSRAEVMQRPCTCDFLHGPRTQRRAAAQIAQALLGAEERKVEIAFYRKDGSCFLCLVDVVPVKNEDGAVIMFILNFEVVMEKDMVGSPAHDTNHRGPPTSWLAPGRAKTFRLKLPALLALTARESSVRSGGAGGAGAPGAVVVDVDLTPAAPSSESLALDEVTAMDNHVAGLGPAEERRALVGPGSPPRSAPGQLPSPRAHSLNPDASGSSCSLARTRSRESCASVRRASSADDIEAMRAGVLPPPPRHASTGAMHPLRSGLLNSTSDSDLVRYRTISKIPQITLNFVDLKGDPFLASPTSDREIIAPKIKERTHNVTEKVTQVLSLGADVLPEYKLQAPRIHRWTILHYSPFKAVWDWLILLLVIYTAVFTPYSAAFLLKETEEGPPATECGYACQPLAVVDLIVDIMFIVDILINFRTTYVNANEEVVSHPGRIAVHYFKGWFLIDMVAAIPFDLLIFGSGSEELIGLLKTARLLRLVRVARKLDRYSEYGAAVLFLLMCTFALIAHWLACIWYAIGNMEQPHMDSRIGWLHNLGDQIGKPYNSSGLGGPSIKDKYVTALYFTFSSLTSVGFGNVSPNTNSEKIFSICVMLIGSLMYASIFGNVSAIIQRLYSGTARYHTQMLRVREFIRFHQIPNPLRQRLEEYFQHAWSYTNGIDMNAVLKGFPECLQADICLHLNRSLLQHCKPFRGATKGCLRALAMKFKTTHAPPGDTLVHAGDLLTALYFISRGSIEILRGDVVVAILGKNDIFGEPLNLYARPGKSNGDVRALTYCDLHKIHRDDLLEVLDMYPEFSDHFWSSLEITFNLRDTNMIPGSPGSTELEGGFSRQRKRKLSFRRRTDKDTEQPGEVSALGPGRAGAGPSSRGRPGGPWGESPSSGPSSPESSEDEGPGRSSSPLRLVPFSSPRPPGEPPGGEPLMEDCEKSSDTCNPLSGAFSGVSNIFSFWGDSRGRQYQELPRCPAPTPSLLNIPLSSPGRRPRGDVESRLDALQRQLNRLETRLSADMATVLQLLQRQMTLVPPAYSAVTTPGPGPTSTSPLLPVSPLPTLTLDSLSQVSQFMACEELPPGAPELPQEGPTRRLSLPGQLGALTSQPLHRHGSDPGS
Sequence of UniProt P02791 (P02791 whole entry, looked up): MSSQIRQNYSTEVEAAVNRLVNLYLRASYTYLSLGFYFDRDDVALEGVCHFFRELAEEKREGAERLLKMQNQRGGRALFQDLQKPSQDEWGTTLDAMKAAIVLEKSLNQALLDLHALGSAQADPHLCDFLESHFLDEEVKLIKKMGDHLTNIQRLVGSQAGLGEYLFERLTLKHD
Sequence of UniProt O15648 (O15648 whole entry, looked up): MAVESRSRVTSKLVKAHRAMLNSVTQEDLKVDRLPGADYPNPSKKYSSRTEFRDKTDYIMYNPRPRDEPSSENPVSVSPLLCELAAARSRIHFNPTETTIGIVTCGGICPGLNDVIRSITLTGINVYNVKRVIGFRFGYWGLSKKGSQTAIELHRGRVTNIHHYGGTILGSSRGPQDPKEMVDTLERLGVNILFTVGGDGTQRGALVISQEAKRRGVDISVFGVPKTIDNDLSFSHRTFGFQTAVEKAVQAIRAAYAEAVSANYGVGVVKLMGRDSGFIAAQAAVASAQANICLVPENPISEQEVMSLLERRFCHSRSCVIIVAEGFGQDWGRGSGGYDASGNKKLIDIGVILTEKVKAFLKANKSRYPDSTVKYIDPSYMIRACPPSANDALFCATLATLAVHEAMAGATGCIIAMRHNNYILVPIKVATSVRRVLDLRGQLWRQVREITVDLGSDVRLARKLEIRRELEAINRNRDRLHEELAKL
Sequence of UniProt P83916 (P83916 whole entry, looked up): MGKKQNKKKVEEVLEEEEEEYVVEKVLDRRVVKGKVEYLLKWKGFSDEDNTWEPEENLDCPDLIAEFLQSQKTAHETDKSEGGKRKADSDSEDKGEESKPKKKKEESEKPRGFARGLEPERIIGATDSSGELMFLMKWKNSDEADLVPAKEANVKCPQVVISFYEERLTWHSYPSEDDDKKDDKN

CCOC(=O)COc1ccc(Br)cc1/C=C/c1[nH]c(=O)[nH]c(=O)c1[N+](=O)[O-]
inconclusive: Potency [2] 11.2 µM [rising, single point] | activation [3] 19.2% [activator]
inactive: Potency [1]

N[C@H](C(=O)O)[C@H]1C[C@@H]1C(=O)O
inconclusive: Potency [7] 84.9 µM [cytotoxic, single point]
active: Potency [4] 39.8 µM | Potency [9] 2.51 µM
inactive: Potency [5] | Potency [6] | Potency [8] | activity change, negative = inhibition [10] 1.69% | Potency [11] | Potency [12] | Potency [13] | activation [14] -1.36% | Potency [15] | Potency [16] | max response [17] 18.4%

Nc1nc(Cl)nc2c1ncn2[C@@H]1O[C@H](COP(=O)(O)OP(=O)(O)OP(=O)(O)O)[C@H](O)[C@H]1O
inconclusive: Potency [5] 56.2 µM [inhibitor, partial curve] | Potency [6] 8.91 µM [inhibitor, partial curve] | Potency [8] 0.0011 µM [inhibitor, full curve, poor fit] | Potency [19] 12.6 µM [activator, single point]
inactive: Potency [18]

CC(C)CN(C)c1nc(N)c(C(=O)N=C(N)N)nc1Cl
inactive: Potency [22] | Potency [23] | Potency [8]
inconclusive: activity change, negative = inhibition [20] 36.7% [activator] [at 38 µM] | Potency [21] 42.9 µM [single point] | Potency [24] 5.01 µM [inhibitor, full curve] | Potency [25] 0.0398 µM [inhibitor, full curve, poor fit] | Potency [5] 6.31 µM [inhibitor, full curve, poor fit] | Potency [26] 15.8 µM [inhibitor, single point] | Potency [27] 28.2 µM [inhibitor, partial curve] | Potency [19] 22.4 µM [activator, single point] | Potency [29] 20 µM [activator, single point] | Potency [30] 20.6 µM [activator, single point]
active: Potency [28] 8.28 µM | Potency [12] 10.4 µM
